This passage reports Ki results from US20210130346A1, “Bromodomain Inhibitors” (AbbVie Inc., priority 2017, published 2021).

Molecules are shown by their SMILES.

This assay deals with BRD4 (BDII_E352-M457) (Homo sapiens, UniProt O60885). In words: TR-FRET bromodomain binding assay, BRD4 second bromodomain (BDII). To be noted: mean Ki; 4 nM His tagged BRD4 (BDII_E352-M457), 30 nM Alexa647 probe; Ki calculated from IC50, probe Kd and probe concentration. How it is done:
A time-resolved fluorescence resonance energy transfer (TR-FRET) assay was used to determine the affinities of compounds of the Examples listed in Table 1 for each bromodomain of BRD4. […] An Alexa647-labeled BET-inhibitor was used as the fluorescent probe in the assay.
Compound dilution series were prepared in DMSO via an approximately 3-fold serial dilution. Compound dilutions were added directly into white, low-volume assay plates (Perkin Elmer Proxiplate 384 Plus# 6008280) using a Labcyte Echo in conjunction with Labcyte Access and Thermo Multidrop CombinL robotics. Compounds were then suspended in eight microliters (μL) of assay buffer (20 mM Sodium Phosphate, pH 6.0, 50 mM NaCl, 1 mM Ethylenediaminetetraacetic acid disodium salt dihydrate, 0.01% Triton X-100, 1 mM DL-Dithiothreitol) containing His-tagged bromodomain, Europium-conjugated anti-His antibody (Invitrogen PV5596) and Alexa-647-conjugated probe.
After a one-hour equilibration at room temperature, TR-FRET ratios were determined using an Envision multilabel plate reader (Ex 340, Em 495/520).
TR-FRET data were normalized to the means of 24 no-compound controls (“high”) and 8 controls containing 1 μM un-labeled probe (“low”). Percent inhibition was plotted as a function of compound concentration and the data were fit with the 4 parameter logistic equation to obtain IC50s. Inhibition constants (Ki) were calculated from the IC50s, probe Kd and probe concentration.
By Ki is commonly meant the dissociation constant of the complex between target and ligand, obtained from inhibition or displacement. As for `CN1C(=O)[C@@]2(C[C@@]2(C)c2cn(C)c(=O)c3[nH]c(C(=O)NC4CC4)cc23)c2ccc(OC(F)(F)F)cc21` (racemic) [Example 58, rac-N-cyclopropyl-4-[(1R,2S)-1′,2-dimethyl-2′-oxo-6′-(trifluoromethoxy)-1′,2′-dihydrospiro[cyclopropane-1,3′-indol]-2-yl]-6-methyl-7-oxo-6,7-dihydro-1H-pyrrolo[2,3-c]pyridine-2-carboxamide], the Ki is 1700 nM. Consider `CN1C(=O)[C@]2(C[C@@H]2c2cn(C)c(=O)c3[nH]c(C(=O)O)cc23)c2ccccc21` (single isomer, unassigned) [Example 6], for which the Ki is 2750 nM. Turning to `CN1C(=O)[C@@]2(C[C@H]2c2cn(C)c(=O)c3[nH]c(C(=O)O)cc23)c2ccccc21` (single isomer, unassigned) [Example 7], the Ki was 5490 nM. Under `CN1C(=O)[C@@]2(C[C@H]2c2cn(C)c(=O)c3[nH]c(C(=O)NC4CC4)cc23)c2cc(F)ccc21` (single isomer, unassigned) [Example 18] stands 418 nM; under `Cn1cc([C@H]2C[C@]23C(=O)Nc2ccccc23)c2cc(C(=O)NC3CC3)[nH]c2c1=O` (single isomer, unassigned) [Example 20], 12.8 nM; under `Cn1cc([C@@H]2C[C@@]23C(=O)Nc2ccccc23)c2cc(C(=O)NC3CC3)[nH]c2c1=O` (single isomer, unassigned) [Example 21], 1150 nM. Regarding `CN1C(=O)[C@]2(C[C@@H]2c2cn(C)c(=O)c3[nH]c(C(=O)NC4CC4)cc23)c2ccccc21` [Example 3, N-cyclopropyl-6-methyl-4-[(1S,2R)-1′-methyl-2′-oxo-1′,2′-dihydrospiro[cyclopropane-1,3′-indol]-2-yl]-7-oxo-6,7-dihydro-1H-pyrrolo[2,3-c]pyridine-2-carboxamide], the Ki was 4.53 nM. For `CN1C(=O)[C@@]2(C[C@H]2c2cn(C)c(=O)c3[nH]c(C(=O)NC4CC4)cc23)c2ccccc21` [Example 4, N-cyclopropyl-6-methyl-4-[(1R,2S)-1′-methyl-2′-oxo-1′,2′-dihydrospiro[cyclopropane-1,3′-indol]-2-yl]-7-oxo-6,7-dihydro-1H-pyrrolo[2,3-c]pyridine-2-carboxamide] the value was 267 nM; for `CN1C(=O)[C@]2(C[C@@H]2c2cn(C)c(=O)c3[nH]c(C(=O)NC4CC4)cc23)c2cc(F)ccc21` [Example 17, N-cyclopropyl-4-[(1S,2R)-5′-fluoro-′-methyl-2′-oxo-1′,2′-dihydrospiro[cyclopropane-1,3′-indol]-2-yl]-6-methyl-7-oxo-6,7-dihydro-1H-pyrrolo[2,3-c]pyridine-2-carboxamide], 3.25 nM; for `Cn1cc([C@H]2C[C@]23C(=O)N(CC(F)(F)F)c2ccccc23)c2cc(C(=O)NC3CC3)[nH]c2c1=O` [Example 24, N-cyclopropyl-6-methyl-7-oxo-4-[(1S,2R)-2′-oxo-′-(2,2,2-trifluoroethyl)-1′,2′-dihydrospiro[cyclopropane-1,3′-indol]-2-yl]-6,7-dihydro-1H-pyrrolo[2,3-c]pyridine-2-carboxamide], 5.98 nM. For `Cn1cc([C@@H]2C[C@@]23C(=O)N(CC(F)(F)F)c2ccccc23)c2cc(C(=O)NC3CC3)[nH]c2c1=O` [Example 25, N-cyclopropyl-6-methyl-7-oxo-4-[(1R,2S)-2′-oxo-′-(2,2,2-trifluoroethyl)-1′,2′-dihydrospiro[cyclopropane-1,3′-indol]-2-yl]-6,7-dihydro-1H-pyrrolo[2,3-c]pyridine-2-carboxamide] the value was 1170 nM; for `CN1C(=O)[C@]2(C[C@@H]2c2cn(C)c(=O)c3[nH]c(-c4cnn(C)c4)cc23)c2ccccc21` [Example 34, (1S,2R)-1′-methyl-2-[6-methyl-2-(1-methyl-1H-pyrazol-4-yl)-7-oxo-6,7-dihydro-1H-pyrrolo[2,3-c]pyridin-4-yl]spiro[cyclopropane-1,3′-indol]-2′(1H)-one], 2.88 nM. Under `CN1C(=O)[C@@]2(C[C@H]2c2cn(C)c(=O)c3[nH]c(-c4cnn(C)c4)cc23)c2ccccc21` [Example 35, (1R,2S)-1′-methyl-2-[6-methyl-2-(1-methyl-1H-pyrazol-4-yl)-7-oxo-6,7-dihydro-1H-pyrrolo[2,3-c]pyridin-4-yl]spiro[cyclopropane-1,3′-indol]-2′(1H)-one] stands 198 nM. For the molecule `CN1C(=O)[C@]2(C[C@@H]2c2cn(C)c(=O)c3[nH]c(-c4cccnc4)cc23)c2ccccc21` [Example 48, (1S,2R)-1′-methyl-2-[6-methyl-7-oxo-2-(pyridin-3-yl)-6,7-dihydro-1H-pyrrolo[2,3-c]pyridin-4-yl]spiro[cyclopropane-1,3′-indol]-2′(1H)-one], the Ki is 6.28 nM. For `CN1C(=O)[C@@]2(C[C@H]2c2cn(C)c(=O)c3[nH]c(-c4cccnc4)cc23)c2ccccc21` [Example 49, (1R,2S)-1′-methyl-2-[6-methyl-7-oxo-2-(pyridin-3-yl)-6,7-dihydro-1H-pyrrolo[2,3-c]pyridin-4-yl]spiro[cyclopropane-1,3′-indol]-2′(1H)-one] the value was 29.4 nM; for `CN1C(=O)[C@]2(C[C@@H]2c2cn(C)c(=O)c3[nH]c(-c4ccnc(C(F)(F)F)c4)cc23)c2ccccc21` [Example 52, (1S,2R)-1′-methyl-2-{6-methyl-7-oxo-2-[2-(trifluoromethyl)pyridin-4-yl]-6,7-dihydro-1H-pyrrolo[2,3-c]pyridin-4-yl}spiro[cyclopropane-1,3′-indol]-2′(1H)-one], 2.04 nM. In the case of `CN1C(=O)[C@@]2(C[C@H]2c2cn(C)c(=O)c3[nH]c(-c4ccnc(C(F)(F)F)c4)cc23)c2ccccc21` [Example 53, (1R,2S)-1′-methyl-2-{6-methyl-7-oxo-2-[2-(trifluoromethyl)pyridin-4-yl]-6,7-dihydro-1H-pyrrolo[2,3-c]pyridin-4-yl}spiro[cyclopropane-1,3′-indol]-2′(1H)-one], the Ki was 24.4 nM.
